18 sequences from publication PMC12820563 can be followed below.

This is one part of the list. The list includes weakly bound sequences.

For the test, the target named is T1, MBP-FoxP3dN (UniProt Q99JB6).
T1 sequence: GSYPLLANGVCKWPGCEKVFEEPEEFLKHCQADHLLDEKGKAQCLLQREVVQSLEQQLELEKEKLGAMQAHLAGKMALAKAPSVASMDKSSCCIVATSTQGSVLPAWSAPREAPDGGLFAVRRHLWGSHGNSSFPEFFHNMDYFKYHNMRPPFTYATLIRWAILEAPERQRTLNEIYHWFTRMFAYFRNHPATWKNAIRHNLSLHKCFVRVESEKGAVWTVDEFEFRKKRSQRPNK
The test is described as follows: PD-seq (MBP pull-down with sequencing). As to conditions: 20 mM Tris-HCl pH 7.5, 100 mM NaCl, 1.5 mM MgCl2, 0.4 uM protein, 0.1 uM dsDNA library, 30 min, room temperature, amylose pull-down; high values mean tight binding; double strand, one strand shown.
For the sequence “GATGATTGTTCTCCCAGCTGATGAATTGTGACCCTCGAGTAAACAAATTTTCCTAATCTTTCTGTTCAAGCGCCATCTAC”, the binding signal (RPM ratio (pull-down/input)) was determined as 0.739.
Take “GATGATTGTTCTCCCAGCTGATGAATTTGAGTGTTCGAGTAAACAAATTTTCCTAATCTTTCTGTTCAAGCGCCATCTAC”: the binding signal (RPM ratio (pull-down/input)) turned out to be 1.53.
Consider “GATGATTGTTCTCCCAGCTGATGAATTCCTACGCTCGAGTAAACAAATTTTCCTAATCTTTCTGTTCAAGCGCCATCTAC”, for which the binding signal (RPM ratio (pull-down/input)) worked out at 0.235.
With “GATGATTGTTCTCCCAGCTGATGAATTCAGGTCATCGAGTAAACAAATTTTCCTAATCTTTCTGTTCAAGCGCCATCTAC”, the binding signal (RPM ratio (pull-down/input)) was 0.504.
Consider “GATGATTGTTCTCCCAGCTGATGAATTGCCATACTCGAGTAAACAAATTTTCCTAATCTTTCTGTTCAAGCGCCATCTAC”, for which the binding signal (RPM ratio (pull-down/input)) is 0.943.
“GATGATTGTTCTCCCAGCTGATGAATTTAACTCGTCGAGTAAACAAATTTTCCTAATCTTTCTGTTCAAGCGCCATCTAC”: the binding signal (RPM ratio (pull-down/input)) was 0.387.
In the case of “GATGATTGTTCTCCCAGCTGATGAATTCAGATTATCGAGTAAACAAATTTTCCTAATCTTTCTGTTCAAGCGCCATCTAC”, the binding signal (RPM ratio (pull-down/input)) was determined as 0.784.
As to “GATGATTGTTCTCCCAGCTGATGAATTCCTTTTTTCGAGTAAACAAATTTTCCTAATCTTTCTGTTCAAGCGCCATCTAC”, the binding signal (RPM ratio (pull-down/input)) came out at 0.35.
In the case of “GATGATTGTTCTCCCAGCTGATGAATTGACGAATTCGAGTAAACAAATTTTCCTAATCTTTCTGTTCAAGCGCCATCTAC”, the binding signal (RPM ratio (pull-down/input)) is 0.617.
As for “GATGATTGTTCTCCCAGCTGATGAATTAATTCGATCGAGTAAACAAATTTTCCTAATCTTTCTGTTCAAGCGCCATCTAC”, the binding signal (RPM ratio (pull-down/input)) was determined as 0.244.
“GATGATTGTTCTCCCAGCTGATGAATTTATTTATTCGAGTAAACAAATTTTCCTAATCTTTCTGTTCAAGCGCCATCTAC”: the binding signal (RPM ratio (pull-down/input)) was 5.86.
On to “GATGATTGTTCTCCCAGCTGATGAATTAAGACCATCGAGTAAACAAATTTTCCTAATCTTTCTGTTCAAGCGCCATCTAC”, for which the binding signal (RPM ratio (pull-down/input)) stood at 0.484.
Turning to “GATGATTGTTCTCCCAGCTGATGAATTGGCAATTTCGAGTAAACAAATTTTCCTAATCTTTCTGTTCAAGCGCCATCTAC”, the binding signal (RPM ratio (pull-down/input)) amounted to 1.27.
Turning to “GATGATTGTTCTCCCAGCTGATGAATTATATGTTTCGAGTAAACAAATTTTCCTAATCTTTCTGTTCAAGCGCCATCTAC”, the binding signal (RPM ratio (pull-down/input)) came out at 2.01.
With “GATGATTGTTCTCCCAGCTGATGAATTTGGAAATTCGAGTAAACAAATTTTCCTAATCTTTCTGTTCAAGCGCCATCTAC”, the binding signal (RPM ratio (pull-down/input)) was 0.539.
Regarding “GATGATTGTTCTCCCAGCTGATGAATTAATTCCGTCGAGTAAACAAATTTTCCTAATCTTTCTGTTCAAGCGCCATCTAC”, the binding signal (RPM ratio (pull-down/input)) turned out to be 0.288.
Take “GATGATTGTTCTCCCAGCTGATGAATTTCTTTCGTCGAGTAAACAAATTTTCCTAATCTTTCTGTTCAAGCGCCATCTAC”: the binding signal (RPM ratio (pull-down/input)) is 0.43.
“GATGATTGTTCTCCCAGCTGATGAATTTACGTGATCGAGTAAACAAATTTTCCTAATCTTTCTGTTCAAGCGCCATCTAC”: the binding signal (RPM ratio (pull-down/input)) amounted to 0.645.
